Experimental data published in PubChem BioAssay AID720542 (National Center for Advancing Translational Sciences (NCATS), 2013).
Hit rate of the full screen: of about 360,000 compounds, about 740 (0.21%) were called active. The inconclusive results got no clear call from the source; some entries with a clear call stand among them for comparison. Calls follow the shape of the dose curve; as a rule, active = well fitted inhibition curve with a large enough effect; inconclusive = small, poorly fitted or top-dose-only effect; inactive = no such curve, though single readings can be large or run the other way. No potency is given beside an inconclusive call; the fits are too rough.

System: Plasmodium falciparum AMA1 (3D7) - RON2 peptide interaction
Assay: qHTS for Inhibitors of AMA1-RON; Towards Development of Antimalarial Drug Lead: Primary Screen; also: nearly all actives have a fitted effect of over 45% in size;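 as to activity change, negative = inhibition: 0% = vehicle wells and -100% = peptide control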
Conditions: AlphaScreen AMA1-biotinylated RON2 peptide binding; activity change, negative = inhibition: at 58.2 µM (top of the series) unless noted
Method in brief: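 AMA1 (3D7) with his tag at 25 nM final met compounds first, then biotinylated RON2 peptide at 25 nM; detection used donor plus acceptor beads, 10 µg/mL apiece, read by AlphaScreen after 30 min at room temperature.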
Potency is read from the fitted curve at half-maximal effect; tags tell the direction and shape of the fitted curve.

Question: With `O=C(Nc1ccccc1N1CCOCC1)c1ccc([N+](=O)[O-])s1` as the compound, how does the Potency read?
Answer: Its Potency is inconclusive [inhibitor, partial curve].

Question: With `O=C(O)C[C@H]1c2ccccc2S(=O)(=O)N1c1ccccc1` as the compound, how does the “activity change, negative = inhibition” value read?
Answer: Its value is inactive: 6.87%.

Question: With `Cc1csc(SCC(=O)Nc2ccc3c(c2)OCCO3)n1` as the compound, how does the “activity change, negative = inhibition” value read?
Answer: The value was inactive: -2.17%.

Question: For `O=C(Nc1nnc(C2CC2)s1)c1n[nH]c(=O)c2ccccc12`, which “activity change, negative = inhibition” value is on record?
Answer: Its value is inactive: 79.4%.

Question: Which Potency does the source give for `COc1ccc(NC(=O)C2Cc3c(-c4ccc5c(c4)OCO5)ccnc3O2)cn1` (stereo not given) here?
Answer: The Potency was inconclusive [inhibitor, full curve, poor fit].

Question: For `C#CCOCCOCCOCCNc1nc(N2CCN(C(=O)CCCCCCCCCCNC(=O)[C@H](CCCCN)n3cc(CCO)nn3)CC2)nc(N2CCN(C(=O)CCCCCCCCCCNC(=O)[C@H](CCCCN)n3cc(CCCC(=O)O)nn3)CC2)n1`, which Potency is on record?
Answer: Its Potency is inconclusive [inhibitor, single point].

Question: With `COc1ccc(N2CC2c2ccncc2)cc1` (stereo not given) as the compound, how does the “activity change, negative = inhibition” value read?
Answer: Its value is inactive: 5.09%.

Question: With `CCNc1ccc2noc3c2c1C(=O)c1ccccc1-3` as the compound, how does the Potency read?
Answer: The Potency was inconclusive [inhibitor, partial curve].

Question: For `CC(C)(CNC(=O)C1CCN(S(=O)(=O)c2cc([N+](=O)[O-])ccc2Cl)CC1)N1CCOCC1`, which “activity change, negative = inhibition” value is on record?
Answer: Its value is inactive: 9.44%.

Question: Which “activity change, negative = inhibition” value does the source give for `CN(C(=O)C1CCC(=O)N(C2CC2)C1)C1CCCCC1` (stereo not given) here?
Answer: The value was inactive: 1.4%.

Question: How did the Potency turn out when `Cc1ccc(N(Cc2ccco2)C(=O)c2ccc(N3CCCCC3)c([N+](=O)[O-])c2)cc1` was run?
Answer: The Potency was inconclusive [inhibitor, partial curve].

Question: How did the Potency turn out when `COc1cc(O)c(C(=O)/C=C/c2ccccc2)c(OC)c1` was run?
Answer: Its Potency is inconclusive [inhibitor, partial curve].

Question: With `O=C(c1ccc2c(=O)n(Cc3ccc(Cl)cc3)c(=S)[nH]c2c1)N1CCOCC1` as the compound, how does the “activity change, negative = inhibition” value read?
Answer: Its value is inactive: 91.6%.

Question: With `Cc1ccc(C)c(SCC(=O)OCC(=O)c2ccco2)c1` as the compound, how does the “activity change, negative = inhibition” value read?
Answer: Its value is inactive: -9.67%.

Question: How did the Potency turn out when `CCOc1ccc(Nc2ccc([N+](=O)[O-])c3nonc23)cc1` was run?
Answer: The Potency was inconclusive [inhibitor, partial curve].

Question: Which “activity change, negative = inhibition” value does the source give for `Cc1ccc(NC(=O)Cn2c([N+](=O)[O-])cnc2C)cc1Cl` here?
Answer: Its value is inactive: 11.7%.

Question: `c1ccc(-c2cc(N3CCOCC3)nc(-c3ccccc3)n2)cc1` was tested. Which Potency did it give?
Answer: Its Potency is inconclusive [inhibitor, partial curve].

Question: For `COCCN1CCn2c(nc3cc([N+](=O)[O-])ccc32)C1`, which “activity change, negative = inhibition” value is on record?
Answer: The value was inactive: -17.5%.

Question: With `c1ccc(-c2cnc(-c3ccccn3)nn2)cc1` as the compound, how does the Potency read?
Answer: Its Potency is inconclusive [inhibitor, partial curve].

Question: With `COC(=O)CN1C(=S)N(c2ccc(OC)cc2)C(=O)/C1=C/c1ccc(OC)cc1` as the compound, how does the Potency read?
Answer: The Potency was inconclusive [inhibitor, partial curve].

Question: Which Potency does the source give for `CCN1CCN(Cc2ccc(NC(=O)c3ccc(C)c(NC(=O)c4cncc(-c5cccs5)c4)c3)cc2C(F)(F)F)CC1` here?
Answer: The Potency was inconclusive [inhibitor, single point].

Question: `Cc1ccc(SCC(=O)NCC2COc3ccccc3O2)cc1` (stereo not given) was tested. Which Potency did it give?
Answer: The Potency was inconclusive [inhibitor, full curve, poor fit].

Question: For `Cc1cc(-c2cc(NC=O)c3ncc(-c4cccc(C(=O)NCCN(C)C)c4)n3c2)cc(C)c1O`, which Potency is on record?
Answer: Its Potency is inconclusive [inhibitor, partial curve].

Question: For `CCC(=O)N1CCN(c2ccccc2NC(=O)Cc2ccc(Cl)cc2)CC1`, which Potency is on record?
Answer: Its Potency is inconclusive [inhibitor, full curve, poor fit].

Question: How did the Potency turn out when `NC(=O)NC(=O)COC(=O)CCSc1ccccc1` was run?
Answer: The Potency was inconclusive [inhibitor, single point].

Question: `CC(=O)N1CCN(c2ccc(NCc3cccc4ccccc34)cc2)CC1` was tested. Which Potency did it give?
Answer: Its Potency is inconclusive [inhibitor, single point].

Question: How did the Potency turn out when `Cc1cccc(NC(=O)c2cc([N+](=O)[O-])ccc2NC2CCCCC2)c1` was run?
Answer: The Potency was inconclusive [inhibitor, partial curve].

Question: With `Cc1ccc(C(=O)/C=C/c2c(C)nn(-c3ccccc3)c2Cl)cc1` as the compound, how does the Potency read?
Answer: The Potency was inconclusive [inhibitor, partial curve].

Question: For `COc1ccc2c(c1)C(C)CC(C)(C)N2C(=O)Nc1ccccc1` (stereo not given), which Potency is on record?
Answer: The Potency was inconclusive [inhibitor, partial curve].

Question: How did the Potency turn out when `Cc1ccc(NC(=S)N(CCCN2CCCC2)Cc2cccn2Cc2ccc(Cl)cc2)cc1` was run?
Answer: Its Potency is inconclusive [inhibitor, partial curve].

Question: Which Potency does the source give for `Cn1c(=O)oc2cc(S(=O)(=O)N3CCN(Cc4ccc5c(c4)OCO5)CC3)ccc21` here?
Answer: The Potency was inconclusive [inhibitor, single point].

Question: With `O=C(/C=C\c1ccccc1OC(=O)c1ccccc1F)c1cc2ccccc2o1` as the compound, how does the Potency read?
Answer: The Potency was inconclusive [inhibitor, partial curve].

Question: Which Potency does the source give for `COc1ccc2c(c1)CC/C(=C/c1ccco1)C2=O` here?
Answer: Its Potency is inconclusive [inhibitor, single point].

Question: For `COC(=O)C1=C(c2ccccc2OCc2ccccc2)C[C@@H]2CC[C@H]1N2C(=O)NCCOc1ccc(OC)cc1`, which Potency is on record?
Answer: Its Potency is inconclusive [inhibitor, partial curve].

Question: Which Potency does the source give for `COc1ccccc1NC(=O)c1ccc(NC(=O)CN2CCCCC2)cc1` here?
Answer: Its Potency is inconclusive [inhibitor, partial curve].

Question: Which “activity change, negative = inhibition” value does the source give for `Cc1nc(N2CCC(C)CC2)c2nnn(Cc3ccccc3)c2n1` here?
Answer: Its value is inactive: 12.5%.

Question: `CC1CCN(CC(=O)Nc2ccc(Cl)cc2[N+](=O)[O-])CC1` was tested. Which Potency did it give?
Answer: Its Potency is inconclusive [inhibitor, partial curve, poor fit].

Question: Which Potency does the source give for `CSc1ccc(CN2CCN(c3ccccc3C)CC2)cc1` here?
Answer: The Potency was inconclusive [inhibitor, partial curve].

Question: How did the Potency turn out when `CC[C@@H]1c2ccccc2[C@@H]2CC[C@H]1N2c1ccccc1` was run?
Answer: The Potency was inconclusive [inhibitor, partial curve].

Question: How did the “activity change, negative = inhibition” value turn out when `CCCCOc1ccc(NC(=O)CN2CCN(C(=O)OCC)CC2)cc1` was run?
Answer: The value was inactive: -23.7%.

Question: How did the “activity change, negative = inhibition” value turn out when `CC(C)Oc1cccc(C(=O)C2CCCN(C(=O)c3ccoc3)C2)c1` (stereo not given) was run?
Answer: Its value is inactive: -7.83%.

Question: `C=CCn1c(COc2cccc(C)c2C)nnc1SCC(=O)N1CCN(c2ccccc2)CC1` was tested. Which Potency did it give?
Answer: Its Potency is inconclusive [inhibitor, full curve, poor fit].

Question: How did the Potency turn out when `Nc1ccc(-c2cnc[nH]2)cc1[N+](=O)[O-]` was run?
Answer: Its Potency is inconclusive [inhibitor, partial curve].

Question: How did the Potency turn out when `COc1ccc(-c2sc3ccccc3c2-c2ccc(OCCN3CCCCC3)cc2)cc1` was run?
Answer: Its Potency is inconclusive [inhibitor, partial curve].

Question: With `CCCN1CCCc2cc(CN)ccc21` as the compound, how does the Potency read?
Answer: The Potency was inconclusive [inhibitor, single point].

Question: How did the “activity change, negative = inhibition” value turn out when `CCS(=O)(=O)N1CCC(C(=O)NCc2ccco2)CC1` was run?
Answer: Its value is inactive: -2.29%.

Question: With `COc1ccc(N=C2SCC(c3ccc(C)cc3)=NN2CCO)cc1` as the compound, how does the Potency read?
Answer: Its Potency is inconclusive [inhibitor, single point].

Question: Which Potency does the source give for `COc1ccc(OC)c(C2=CC(=O)C[C@H](c3ccc4c(c3)OCO4)C2)c1` here?
Answer: Its Potency is inconclusive [inhibitor, single point].

Question: For `CCc1nc2ccc(C(=O)NCc3ccccc3OC)cn2c1N(C)Cc1ccc(N(C)C)cc1`, which Potency is on record?
Answer: The Potency was active: 14.1 µM.

Question: `CC(C)(C)c1c(Cl)c(O)c(-c2ccccc2)c(=O)n1-c1ccccc1` was tested. Which Potency did it give?
Answer: The Potency was inconclusive [inhibitor, single point].

Question: `COc1ccc(C2c3ccc4ccccc4c3Oc3ncn(CCN4CCOCC4)c(=N)c32)cc1` (stereo not given) was tested. Which Potency did it give?
Answer: The Potency was inconclusive [inhibitor, single point].

Question: `Cc1cccn2c(=O)c(/C=C(\C#N)C(N)=O)c(N3CCN(c4ccccc4)CC3)nc12` was tested. Which Potency did it give?
Answer: The Potency was inconclusive [inhibitor, full curve, poor fit].

Question: For `CS(=O)(=O)Nc1cccc2cccnc12`, which Potency is on record?
Answer: The Potency was inconclusive [inhibitor, single point].

Question: `COc1ccc(CN2CCN(Cc3ccc(Br)cc3)CC2)c(OC)c1OC` was tested. Which Potency did it give?
Answer: Its Potency is inconclusive [inhibitor, partial curve].

Question: How did the Potency turn out when `O=C(Cc1csc(N2CCOCC2)n1)N/N=C/c1ccc(O)c(O)c1O` was run?
Answer: Its Potency is inconclusive [inhibitor, partial curve].

Question: For `Cc1ccc(NC(=O)CCCc2nc3ccccc3s2)c(O)c1`, which “activity change, negative = inhibition” value is on record?
Answer: Its value is inactive: -5.37%.

Question: For `COc1ccc(/C=N/NC(=O)c2cccnc2)cc1CN1CCCc2ccccc21`, which Potency is on record?
Answer: The Potency was inconclusive [inhibitor, partial curve].

Question: With `COc1cccc(-c2sc3ccc(OC)cc3c2-c2ccc(OCCN3CCCCC3)cc2)c1` as the compound, how does the Potency read?
Answer: The Potency was inconclusive [inhibitor, partial curve].

Question: With `Cc1c(NC(=O)c2nn(CC(C)C)c(=O)c3ccccc23)c(=O)n(-c2ccccc2)n1C` as the compound, how does the “activity change, negative = inhibition” value read?
Answer: Its value is inactive: 9.5%.

Question: `CSc1ccc(OC2(C)CCN(Cc3ccc(-c4ccccn4)cc3)C2)cc1` (stereo not given) was tested. Which Potency did it give?
Answer: Its Potency is inconclusive [inhibitor, partial curve].

Question: With `O=C(c1ccc(Sc2cccc(Cl)c2)c([N+](=O)[O-])c1)N1CCN(c2ccccn2)CC1` as the compound, how does the Potency read?
Answer: The Potency was inconclusive [inhibitor, partial curve].

Question: `Cc1ccc(F)c(C2C3C=CCC(c4cccc(-c5ccc(N(C)C)cc5)c4)C3C(=O)N2Cc2ccccc2)c1` (stereo not given) was tested. Which Potency did it give?
Answer: Its Potency is inconclusive [inhibitor, partial curve].

Question: `O=[N+]([O-])c1ccc(NN=Cc2cccc([N+](=O)[O-])c2)cc1` was tested. Which Potency did it give?
Answer: Its Potency is inconclusive [inhibitor, partial curve].

Question: Which Potency does the source give for `C=CCOc1ccc(C=CC(=O)c2c(O)c(OC)c(OC)c(OC)c2OC)cc1` here?
Answer: The Potency was inconclusive [inhibitor, partial curve].

Question: With `O=C(C1=C(c2ccccc2)C(=O)c2ccccc2C1=O)c1ccccc1` as the compound, how does the Potency read?
Answer: The Potency was inconclusive [inhibitor, partial curve].
